# From the supplement of paper PMC8728848
# This is one part of the list.
# Columns and labels:
# Test in all cases: glycan array binding signal (z-score within array); higher = stronger binding
# Conditions in all cases: glycan notation: IUPAC condensed, linker removed
# Fuc(a1-2)Gal = target: Fuc(a1-2)Gal
# Method in brief: (§1)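 Arrays were curated from the Consortium for Functional Glycomics database, 3228 in total, and kept only where the protein sequence was available. Binding is expressed as a within-array Z-score. This score was averaged across arrays of the same protein sequence at different concentrations or buffers and across linkers, and negative values can be read as non-binding.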
# Fuc(a1-2)Gal(b1-3)GalNAc = target: Fuc(a1-2)Gal(b1-3)GalNAc
# Method in brief: as §1
# [1] = target: Fuc(a1-2)Gal(b1-3)GalNAc(a1-3)[Fuc(a1-2)]Gal(b1-4)Glc
# Method in brief: as §1
# [2] = target: Fuc(a1-2)Gal(b1-3)GalNAc(a1-3)[Fuc(a1-2)]Gal(b1-4)GlcNAc
# Method in brief: as §1
# [3] = target: Fuc(a1-2)Gal(b1-3)GalNAc(b1-3)Gal
# Method in brief: as §1
# [4] = target: Fuc(a1-2)Gal(b1-3)GalNAc(b1-3)Gal(a1-4)Gal(b1-4)Glc
# Method in brief: as §1
# [5] = target: Fuc(a1-2)Gal(b1-3)GalNAc(b1-4)[Neu5Ac(a2-3)]Gal(b1-4)Glc
# Method in brief: as §1
# Fuc(a1-2)Gal(b1-3)GlcNAc = target: Fuc(a1-2)Gal(b1-3)GlcNAc
# Method in brief: as §1
# [6] = target: Fuc(a1-2)Gal(b1-3)GlcNAc(b1-2)Man(a1-3)[Fuc(a1-2)Gal(b1-3)GlcNAc(b1-2)Man(a1-6)]Man(b1-4)GlcNAc(b1-4)GlcNAc
# Method in brief: as §1
# [7] = target: Fuc(a1-2)Gal(b1-3)GlcNAc(b1-2)Man(a1-3)[Fuc(a1-2)Gal(b1-3)GlcNAc(b1-2)Man(a1-6)]Man(b1-4)GlcNAc(b1-4)[Fuc(a1-6)]GlcNAc
# Method in brief: as §1
# [8] = target: Fuc(a1-2)Gal(b1-3)GlcNAc(b1-3)Gal(b1-4)Glc
# Method in brief: as §1
# [9] = target: Fuc(a1-2)Gal(b1-3)GlcNAc(b1-3)GalNAc
# Method in brief: as §1
# [10] = target: Fuc(a1-2)Gal(b1-3)GlcNAc(b1-3)[Fuc(a1-2)Gal(b1-3)GlcNAc(b1-6)]GalNAc
# Method in brief: as §1
# [11] = target: Fuc(a1-2)Gal(b1-3)GlcNAc(b1-3)[Gal(b1-4)GlcNAc(b1-6)]Gal(b1-4)Glc
# Method in brief: as §1
# [12] = target: Fuc(a1-2)Gal(b1-3)GlcNAc(b1-3)[Neu5Ac(a2-6)Gal(b1-4)GlcNAc(b1-6)]Gal(b1-4)Glc
# Method in brief: as §1
# [13] = target: Fuc(a1-2)Gal(b1-3)GlcNAc6S
# Method in brief: as §1
# [14] = target: Fuc(a1-2)Gal(b1-3)[Fuc(a1-4)]GlcNAc
# Method in brief: as §1
# [15] = target: Fuc(a1-2)Gal(b1-3)[Fuc(a1-4)]GlcNAc(b1-2)Man(a1-3)[Fuc(a1-2)Gal(b1-3)[Fuc(a1-4)]GlcNAc(b1-2)Man(a1-3)]Man(b1-4)GlcNAc(b1-4)GlcNAc
# Method in brief: as §1
# [16] = target: Fuc(a1-2)Gal(b1-3)[Fuc(a1-4)]GlcNAc(b1-2)Man(a1-3)[Fuc(a1-2)Gal(b1-3)[Fuc(a1-4)]GlcNAc(b1-2)Man(a1-6)]Man(b1-4)GlcNAc(b1-4)[Fuc(a1-6)]GlcNAc(b1-4)[Fuc(a1-6)]GlcNAc
# Method in brief: as §1
# [17] = target: Fuc(a1-2)Gal(b1-3)[Fuc(a1-4)]GlcNAc(b1-3)[Fuc(a1-3)[Gal(b1-4)]GlcNAc(b1-6)]Gal(b1-4)Glc
# Method in brief: as §1
# [18] = target: Fuc(a1-2)Gal(b1-3)[Fuc(a1-4)]GlcNAc(b1-3)[Gal(b1-4)GlcNAc(b1-6)]Gal(b1-4)Glc
# Method in brief: as §1
# [19] = target: Fuc(a1-2)Gal(b1-4)Fuc(a1-3)]GlcNAc(b1-2)Man(a1-3)[Fuc(a1-2)Gal(b1-4)[Fuc(a1-3)]GlcNAc(b1-2)Man(a1-6)]Man(b1-4)GlcNAc(b1-4)GlcNAc
# Method in brief: as §1
# Fuc(a1-2)Gal(b1-4)Glc = target: Fuc(a1-2)Gal(b1-4)Glc
# Method in brief: as §1
# Fuc(a1-2)Gal(b1-4)Glc6S = target: Fuc(a1-2)Gal(b1-4)Glc6S
# Method in brief: as §1
# Fuc(a1-2)Gal(b1-4)GlcNAc = target: Fuc(a1-2)Gal(b1-4)GlcNAc
# Method in brief: as §1
# [20] = target: Fuc(a1-2)Gal(b1-4)GlcNAc(b1-2)Man
# Method in brief: as §1
# [21] = target: Fuc(a1-2)Gal(b1-4)GlcNAc(b1-2)Man(a1-3)[Fuc(a1-2)Gal(b1-4)GlcNAc(b1-2)Man(a1-6)]Man(b1-4)GlcNAc(b1-4)GlcNAc
# Method in brief: as §1
# [22] = target: Fuc(a1-2)Gal(b1-4)GlcNAc(b1-2)Man(a1-3)[Fuc(a1-2)Gal(b1-4)GlcNAc(b1-2)Man(a1-6)]Man(b1-4)GlcNAc(b1-4)[Fuc(a1-6)]GlcNAc
# Method in brief: as §1
# [23] = target: Fuc(a1-2)Gal(b1-4)GlcNAc(b1-2)[Fuc(a1-2)Gal(b1-4)GlcNAc(b1-4)]Man(a1-3)[Fuc(a1-2)Gal(b1-4)GlcNAc(b1-2)Man(a1-6)]Man(b1-4)GlcNAc(b1-4)GlcNAc
# Method in brief: as §1
# [24] = target: Fuc(a1-2)Gal(b1-4)GlcNAc(b1-3)Gal(b1-4)GlcNAc
# Method in brief: as §1
binder,measurement,setting,value
GSL-I-B4 (Griffonia simplicifolia) (protein) NFWSDVEDSIIFQGDANTTAGTLQLCKTNQYGTPLQWSAGRALYSDPVQLWDNKTESVASFYTEFTFFLKITGNGPADGLAFFLAPPDSDVKDAGEYLGLFNKSTATQPSKNQVVAVEFDTWTNPNFPEPSYRHIGINVNSIVSVATKRWEDSDIFSGKIATARISYDGSAEILTVVLSYPDGSDYILSHSVDMRQNLPESVRVGISASTGNNQFLTVYILSWRFSSNLQSTSVKAAMEPEITRTVV,glycan array binding signal (z-score),Fuc(a1-2)Gal,-0.181
same,glycan array binding signal (z-score),Fuc(a1-2)Gal(b1-3)GalNAc,-0.188
same,glycan array binding signal (z-score),[1],-0.132
same,glycan array binding signal (z-score),[2],-0.109
same,glycan array binding signal (z-score),[3],-0.073
same,glycan array binding signal (z-score),[4],-0.165
same,glycan array binding signal (z-score),[5],-0.141
same,glycan array binding signal (z-score),Fuc(a1-2)Gal(b1-3)GlcNAc,-0.161
same,glycan array binding signal (z-score),[6],-0.127
same,glycan array binding signal (z-score),[7],-0.145
same,glycan array binding signal (z-score),[8],-0.137
same,glycan array binding signal (z-score),[9],-0.152
same,glycan array binding signal (z-score),[10],-0.15
same,glycan array binding signal (z-score),[11],-0.155
same,glycan array binding signal (z-score),[12],-0.183
same,glycan array binding signal (z-score),[13],-0.205
same,glycan array binding signal (z-score),[14],-0.212
same,glycan array binding signal (z-score),[15],-0.14
same,glycan array binding signal (z-score),[16],-0.183
same,glycan array binding signal (z-score),[17],-0.163
same,glycan array binding signal (z-score),[18],-0.086
same,glycan array binding signal (z-score),[19],-0.128
same,glycan array binding signal (z-score),Fuc(a1-2)Gal(b1-4)Glc,-0.148
same,glycan array binding signal (z-score),Fuc(a1-2)Gal(b1-4)Glc6S,-0.131
same,glycan array binding signal (z-score),Fuc(a1-2)Gal(b1-4)GlcNAc,-0.133
same,glycan array binding signal (z-score),[20],-0.172
same,glycan array binding signal (z-score),[21],-0.145
same,glycan array binding signal (z-score),[22],-0.221
same,glycan array binding signal (z-score),[23],-0.068
same,glycan array binding signal (z-score),[24],-0.215
